# Some of the results follow.
# System: PF3D7_0420300 AP2 domain 1 (GST-tagged)
# Experiment: gcPBM binding intensity (ln(normalized median fluorescence intensity)); higher = stronger DNA binding
# Procedure, shortened: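 DNA-binding domains from P. falciparum, fused to GST and produced in E. coli, were put on an Agilent 4 × 180k double-stranded probe array for 1 h in 1× PBS holding 1% milk, 0.2 mg/ml BSA, 0.5% salmon testes DNA and 0.03% Triton X-100. Probes were primer-extended, 36 bp long and drawn from intergenic genomic regions, with negative controls included. After Alexa488 anti-GST antibody detection and a 488 nm scan, binding intensity was set as the highest Masliner-normalised natural-log median intensity across replicate spots of either probe orientation.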
row,Sequence,gcPBM binding intensity (ln)
1,ATATTCCTTTAATATTGTACTATTTTTTTCCTTATA [XGTACX_site8659],9.55
2,TATATATATATATATTGTACTAAATCATTTAAATGA [XGTACX_site8016],9
3,AAAAAACAAAAACACACGCACACAAAAAAAAAAAAA [CACACA_site802],9.82
4,ATGAAAATATTTAAAAGTACAGAAATATAAAACCTT [XGTACX_site403],9.5
5,CACAAATATACAAATACACACAAATATACACATATA [CACACA_site7176],9.77
6,TATAAAATATAAATAAATAAATAAATATATATATAT [TGCATGCA_negctrl_site448],9.11
7,AAAATATTTATCATTTGTACTTAGATGTAAACTTGA [XGTACX_site1778],8.92
8,TATTTTATACACTTGCTAAAACATTAACACATATGT [CACACA_negctrl_site1818],9.38
9,ATTATACACCCGCGCACACACAACAAAAAAAAAAAA [CACACA_site5871],9.78
10,ATGCAATTATATAGTAGTACAAATTTATAAATATAC [XGTACX_site4869],9.39
11,TCATATATTATATATTGTACAAAATAATAAGTATTT [XGTACX_site3987],8.99
12,ATAATTGTTTAAAGGTGTACAATACATATATTTTAA [XGTACX_site3648],9.24
13,ATATATATATATATGGGTACGTAAAAATATAATAAA [XGTACX_site4036],9.44
14,GTTGTTATATAAAATTGTACATAAAAAACAAAATAT [XGTACX_site5313],9.26
15,TTTTCTTTCTTTCAAACACACATTAATTTTATTCAT [CACACA_site2734],9.33
16,TAAAATTATTAATGAGTGCATTATAAAATCTATATA [GTGCAC_site9493],9.02
17,ATAAATGGCTATAGCATATTGTATATGTGATTATAA [CACACA_negctrl_site948],9.17
18,ATTCTAAATATCAGTGCACACATTTCTACGCAAAGT [CACACA_site474],9.36
19,ACATACATATATATACGTACATATATATTTATATAT [XGTACX_site5799],9.35

row,Sequence,gcPBM binding intensity (ln)
1,AGCAAATACAAACACACACACACATATACATATATA [CACACA_site3497],10.2
2,TAATTACAAAAACATACACACAAAAAAAAAAAAAAA [CACACA_site3782],9.51
3,GTTGGTAGATTTATTTGTACATATGTATCATATTAT [XGTACX_site7135],9.58
4,AAAAATTTATTTTGTTTTTTAAGATTTTTTTTTTTT [CACACA_negctrl_site1210],8.8
5,ATATTAAGAATATATACACACATAAGTATTGTATAT [CACACA_site6110],9.52
6,ATAAAATAAAATAAATGTACACGAAAAAAAATATTT [XGTACX_site3747],9.64
7,TATTCGTGCAATAGTAGTACACTTATAAATTATTCT [XGTACX_site4899],9.24
8,AGTGAGAAATACATAATAATACATTATGTGCATATT [XGTACX_negctrl_site247],9.36
9,TTACTTGTTTATTTTATTTTTTTTTTTTTTTTGTTA [TGCATGCA_negctrl_site266],9.08
10,AAGAATATTTTTTTCTGTACATATAATTTATATACG [XGTACX_site5801],9.13
11,GTACACATATATATATATATATATATATATATATTA [CACACA_negctrl_site1580],9.14
12,ATCTTATATATACGTTGTACTACAGGATATGTCATA [XGTACX_site5734],9.28
13,TGTATATTATAAGATAGTACATATATATAATATATA [XGTACX_site1297],9.14
14,TTCATTTACCCTTATTAACACACAAAATATAATACG [CACACA_site8821],9.51
15,ATAAATATCATATATATACACACGTAATACATAATA [CACACA_site4001],9.56
16,TCTTACAAAAAAAAAAAAAAATAAAATAAAATATAT [CACACA_negctrl_site1575],9.09
17,AAGGAGATAATTTATTGTACATATAATAAATGAACA [XGTACX_site6252],9.18
18,TTAATATTATGTTAAAGTACTTTATATATATATAAT [XGTACX_site2646],8.96
19,CAAACATTTTAATGTACACACACCCACAGACAAACA [CACACA_site5522],9.78

row,Sequence,gcPBM binding intensity (ln)
1,TTCTTTTTGAAATATTAACACACATTTTGTTAATTA [CACACA_site9337],9.43
2,AGGAATTTATAAAATTGTACTTTTAATTACCTACAG [XGTACX_site3153],9.05
3,AACGAAAGAAAAAAAGCACACACAGTTTTGAGCAAT [CACACA_site8658],9.75
4,ACCATGATAAATGTATTAAATGTATCATAACCTATG [CACACA_negctrl_site513],9.22
5,ATCCGTGTCTGAAATACACACATGATAATGTGAATG [CACACA_site8210],9.42
6,ATGGAAACAAGCATCACACATATAAATATATATATA [CACACA_site4979],9.44
7,AAATAAGAGAAAATATGTACATACATATATTTATAT [XGTACX_site6210],9.36
8,TCATAAAATATGTTTTGTACATAAAATTAAACAAGT [XGTACX_site1763],9.08
9,ATATAATTTGTTATACTAACTTTTTAATTATTGATA [GTGCAC_negctrl_site443],9.15
10,AAATATAAATAAAGATGTACATTATCTATATGTGAT [XGTACX_site4863],9.35
11,AATACGTTTATATATTGTACGTTATATATATATATA [XGTACX_site7452],9.26
12,AAGAAAAGCAAACAAGTGCATAATAACAAAAAAAAT [GTGCAC_site9725],9.63
13,TATTTATTTATAAACACACAAATATTTTTATTTATA [CACACA_site6889],9.15
14,TAAGTTCGAATTACTTAAATATTGATTTTTTTAAAA [TGCATGCA_negctrl_site114],8.74
15,AATTTTCTACAAATGTGTACTAAATAAAATATTACT [XGTACX_site7175],9.13
16,ATGTGTGTATTTTATAGTACAGTTACAAGCATTTTT [XGTACX_site6351],9.57
17,ACAATGAGGATATATACACACATACATTAAAAAAAT [CACACA_site6955],9.77
18,TTTTTCTGTTCTTTTTGTACTTAAATATATTTATTT [XGTACX_site5658],9.57
